The source of these data is article PMC10614829 (Proceedings of the National Academy of Sciences of the …, 2023).

In this assay the target is dually phosphorylated ERK2 on Tyr185 and Thr183 (ERK2-pTpY), purified (rat, UniProt P63086, phosphothreonine 183, phosphotyrosine 185). Put plainly: cell-based or functional assay.

B1: β-arrestin 2 (purified, free basal state) (natural protein)
chain: not shown
Regarding B1, the “ERK2-pTpY activity towards MBP, real-time fluorescence-based in vitro kinase assay; fold enhancement of the initial rate over no βarr control” value was approximately 5 fold over control.
